# Assay results from a collection of fitness landscapes (doi:10.1016/j.celrep.2020.107928).
# Over roughly 81,000 sequences, “one-hybrid fitness for binding NBS DNA” has its median near -0.1; the highest 2% begin near 0.36. This is one part of the list.
# B1: Caulobacter ParB omega fusion; a variant is named by its letters at X, in order, B8GW30 (parent)
# chain: MESVVVGEPGMSEGRRGLGRGLSALLGEVDAAPAQAPGEQLGGSREAPIEILQRNPDQPRRTFREEDLEDLSNSIREKGVLQPILVRPSPDTAGEYQIVAGERAWRAAQRAGLKTVPIMVRELDDLAVLEIGIIENVQRADLNVLEEALSYKVLMEKFERTQENIAQTIGKSXSHVANXMRLLXLPDEVQSYLVSGELTAXHARAIAAAADPVALAKQIIEGGLSVRETEALARKAPNLSAGKSKGGRPPRVKDTDTQALESDLSSVLGLDVSIDHRGSTGTLTITYATLEQLDDLCNRLTRGI
# Variants of: B1
# Assay: one-hybrid fitness for binding NBS DNA (the Noc-binding site; scaled: cognate 1, non-cognate 0); higher = stronger binding
# Conditions: with NBS DNA site
# How it was run: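 The reporter was HIS3, with the binding site 19 bp from the promoter, in E. coli USO used for bacterial one-hybrid selection of Caulobacter ParB libraries with four specificity codons randomised. Growth was on M9 lacking histidine, with 0.1 mM IPTG and 5 mM 3-AT, for 48 hours at 37°C. Illumina sequencing covered plasmids before and after selection; three replicate libraries were pooled and variants with under 10 reads dropped. A fitness score is the log change in variant-to-wild-type read ratio, rescaled to the cognate and non-cognate references.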
row,Variant,one-hybrid fitness for binding NBS DNA
1,YQGM,≤ 0.2
2,IEPT,≤ 0.2
3,IHKP,≤ 0.2
4,SKIT,≤ 0.2
5,WLWC,≤ 0.2
6,RGSM,≤ 0.2
7,PSIG,≤ 0.2
8,RGAC,≤ 0.2
9,HIPT,≤ 0.2
10,HNPP,≤ 0.2
11,HGQK,≤ 0.2
12,GPPY,≤ 0.2
13,VMLF,≤ 0.2
14,TNKG,≤ 0.2
15,QCHY,0.258
16,SVNA,≤ 0.2
17,HCLI,≤ 0.2
18,RIRH,0.333
19,CSTN,≤ 0.2
20,ANMC,≤ 0.2
21,RCVN,≤ 0.2
22,KMYR,≤ 0.2
23,GRHM,≤ 0.2
24,KCKT,0.212
25,RAFA,≤ 0.2

row,Variant,one-hybrid fitness for binding NBS DNA
1,LNDM,≤ 0.2
2,VTVQ,≤ 0.2
3,ETAY,≤ 0.2
4,EIIS,≤ 0.2
5,PANV,≤ 0.2
6,DTAD,≤ 0.2
7,YSVR,≤ 0.2
8,SSVD,≤ 0.2
9,PWMT,≤ 0.2
10,ENTR,≤ 0.2
11,RNSI,≤ 0.2
12,KILV,≤ 0.2
13,HKCT,≤ 0.2
14,YEVR,≤ 0.2
15,AQAP,≤ 0.2
16,CHKS,≤ 0.2
17,EYVS,≤ 0.2
18,NTWF,≤ 0.2
19,VAQF,≤ 0.2
20,TPVS,0.295
21,HKYG,≤ 0.2
22,RGAY,≤ 0.2
23,RFQS,0.211
24,QYWT,0.378
25,YNCT,≤ 0.2

row,Variant,one-hybrid fitness for binding NBS DNA
1,GNQV,≤ 0.2
2,GHDT,≤ 0.2
3,MGHE,≤ 0.2
4,QMQE,≤ 0.2
5,TSHF,≤ 0.2
6,QIVI,≤ 0.2
7,ADGP,≤ 0.2
8,DWSC,≤ 0.2
9,RQFL,≤ 0.2
10,VPIT,≤ 0.2
11,PQTG,≤ 0.2
12,TAYI,≤ 0.2
13,EGNL,≤ 0.2
14,LWVC,≤ 0.2
15,MEWG,≤ 0.2
16,TFVS,≤ 0.2
17,NVSK,≤ 0.2
18,APYT,≤ 0.2
19,VPLM,≤ 0.2
20,VPQA,≤ 0.2
21,LFSR,≤ 0.2
22,QTTW,≤ 0.2
23,CYMY,≤ 0.2
24,TCTR,≤ 0.2
25,PDEY,≤ 0.2

row,Variant,one-hybrid fitness for binding NBS DNA
1,ARRT,0.202
2,QYKH,0.569
3,ARHD,≤ 0.2
4,IARF,≤ 0.2
5,LINV,≤ 0.2
6,QVCC,≤ 0.2
7,CCAL,≤ 0.2
8,VHKG,≤ 0.2
9,RNVK,≤ 0.2
10,RSFA,≤ 0.2
11,TMKF,≤ 0.2
12,MYHE,≤ 0.2
13,QSPS,≤ 0.2
14,HVRA,≤ 0.2
15,KKAE,≤ 0.2
16,IAYR,≤ 0.2
17,HVMV,≤ 0.2
18,GLSN,≤ 0.2
19,WRPV,≤ 0.2
20,HRDR,≤ 0.2
21,QMLP,≤ 0.2
22,QRWA,0.432
23,SSNH,≤ 0.2
24,DVMY,≤ 0.2
25,GCAG,≤ 0.2

row,Variant,one-hybrid fitness for binding NBS DNA
1,VKDF,≤ 0.2
2,RSHA,≤ 0.2
3,LHRH,≤ 0.2
4,PSYI,≤ 0.2
5,KKAR,0.212
6,DTTT,≤ 0.2
7,RRQY,0.525
8,TIPF,≤ 0.2
9,RMHF,≤ 0.2
10,RIMQ,≤ 0.2
11,AHRW,≤ 0.2
12,QYAM,≤ 0.2
13,SSAF,≤ 0.2
14,QPLM,≤ 0.2
15,GYYS,≤ 0.2
16,YNHF,≤ 0.2
17,HTLA,≤ 0.2
18,DCRK,≤ 0.2
19,MYTN,≤ 0.2
20,MNYL,≤ 0.2
21,LPYK,≤ 0.2
22,LHYC,≤ 0.2
23,QYPV,≤ 0.2
24,PRTK,≤ 0.2
25,LRLY,≤ 0.2

row,Variant,one-hybrid fitness for binding NBS DNA
1,YSGR,≤ 0.2
2,HPDM,≤ 0.2
3,QRSM,0.374
4,QLNW,≤ 0.2
5,QHIN,≤ 0.2
6,PITN,≤ 0.2
7,NKPL,≤ 0.2
8,FLMC,≤ 0.2
9,PSAI,≤ 0.2
10,EVMG,≤ 0.2
11,TDKR,0.212
12,IRHR,0.326
13,RMSR,0.468
14,VAYT,≤ 0.2
15,IPKL,≤ 0.2
16,LGYT,≤ 0.2
17,RPYF,≤ 0.2
18,RRSP,≤ 0.2
19,QKLV,≤ 0.2
20,LEGL,≤ 0.2
21,THSN,≤ 0.2
22,VFLK,≤ 0.2
23,HPTY,≤ 0.2
24,SWHC,≤ 0.2
25,SRST,≤ 0.2

row,Variant,one-hybrid fitness for binding NBS DNA
1,LEYR,≤ 0.2
2,WFAC,≤ 0.2
3,LMTD,≤ 0.2
4,HRMA,≤ 0.2
5,MDQW,≤ 0.2
6,GYQL,≤ 0.2
7,NYDS,≤ 0.2
8,PANK,≤ 0.2
9,AMPY,≤ 0.2
10,FVCG,≤ 0.2
11,RNDA,≤ 0.2
12,QPML,≤ 0.2
13,SPRF,≤ 0.2
14,FHVS,≤ 0.2
15,LIMC,≤ 0.2
16,AECC,≤ 0.2
17,YTTI,≤ 0.2
18,VNAW,≤ 0.2
19,EHMS,≤ 0.2
20,LKRF,≤ 0.2
21,DIKV,≤ 0.2
22,FGRT,≤ 0.2
23,PGGW,≤ 0.2
24,VQMS,≤ 0.2
25,QSFN,≤ 0.2

row,Variant,one-hybrid fitness for binding NBS DNA
1,DHKG,≤ 0.2
2,EPQR,≤ 0.2
3,ESAG,≤ 0.2
4,GHTW,≤ 0.2
5,IRSM,≤ 0.2
6,HIFS,≤ 0.2
7,HMQC,≤ 0.2
8,FSDS,≤ 0.2
9,EFIS,≤ 0.2
10,VTTW,≤ 0.2
11,QFQY,≤ 0.2
12,QYNR,0.599
13,HYSV,≤ 0.2
14,LCDR,≤ 0.2
15,DTWL,≤ 0.2
16,CVSD,≤ 0.2
17,WSYE,≤ 0.2
18,RDAS,≤ 0.2
19,CMPC,≤ 0.2
20,HDQR,≤ 0.2
